Data reported in PubChem BioAssay AID1794842 (National Center for Advancing Translational Sciences (NCATS), 2023).
Among all 2,800 compounds or so, fewer than 10 were called active. Calls follow the shape of the dose curve; as a rule, active = well fitted curve in the direction sought with a large enough effect; inconclusive = small, poorly fitted or top-dose-only effect, or another doubt; inactive = no such curve, though single readings can be large or run the other way. This is one part of the list.

biological target: Metallo-beta-lactamase type 2 (Klebsiella pneumoniae) (UniProt C7C422); experiment: qHTS to identify inhibitors of the New Delhi Metallo-beta-lactamase (NDM): Meropenem screen against the machine-based learning selections.; also: % of control where 0% means no effect; conditions: Purified NDM-1, meropenem hydrolysis, absorbance 300 nm; at 38.4 µM (top of the series) unless noted
UniProt C7C422, sequence (C7C422 whole entry, looked up): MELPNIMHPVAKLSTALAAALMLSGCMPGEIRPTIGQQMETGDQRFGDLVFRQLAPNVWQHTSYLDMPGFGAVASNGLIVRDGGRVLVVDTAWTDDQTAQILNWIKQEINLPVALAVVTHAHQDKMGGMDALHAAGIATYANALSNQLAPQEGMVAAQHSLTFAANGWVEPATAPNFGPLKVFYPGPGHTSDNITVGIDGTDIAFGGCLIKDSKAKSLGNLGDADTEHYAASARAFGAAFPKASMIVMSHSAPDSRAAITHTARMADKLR
In short: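 Hydrolysis by 2 nM NDM-1 was followed by absorbance after >30 min compound preincubation in HEPES pH 7.0 buffer with 1 uM Zn2SO4. For nitrocefin (16.7 uM, 15 min, 485 nm) and meropenem (50 uM, 30 min, 300 nm), each substrate ran on separate plates.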

SMILES	activity change, negative = inhibition
CN1[C@@H](CCC(=O)N2CCOCC2)CNC(=O)[C@@H]2[C@H]1CCN2Cc1cccs1	inactive: -1.84% [at 57.5 µM]
N#Cc1cccc(NC(=O)N2C[C@@H]3C[C@H](C2)c2ccc(-c4ccc(OC(F)(F)F)cc4)c(=O)n2C3)c1	inactive: 0.423%
C=CCNC(=O)N1CCC(O)(c2csc(CN3CCc4ccccc4C3)n2)CC1	inactive: -1.62% [at 57.5 µM]
CN1CCN(Cc2nc(C3(O)CCN(C(=O)CC(C)(C)C)CC3)cs2)CC1	inactive: -2.04% [at 57.5 µM]
Cc1oc(C(O)c2cccc(O)c2)nc1C(=O)Nc1ccc2[nH]c(=O)oc2c1 (centres undefined)	inactive: 6.13% [at 57.5 µM]
COc1ccc(OC)c(CNC(=O)Cc2cccn2-c2ccc(C)cc2)c1	inactive: -1.16%
NC(=O)c1cccc(-c2cc(-c3ccncc3)c3cncn3c2)c1	inactive: 34.3% [at 57.5 µM]
O=C(NC1CCCc2c1[nH]c1ccc(F)cc21)c1ccncc1 (centres undefined)	inactive: 2.2%
Cc1ncc2c(c1CNC(=O)c1ccc(OC(F)F)cc1)CCNC2	inactive: 42.3%
Oc1ccccc1CNC1(Cc2cc(-c3ccccn3)on2)COC1	inactive: 25.4% [at 57.5 µM]
CCc1nc2c(c(-c3ccc(Cl)cc3)n1)CCN(Cc1ccc(F)cc1)CC2	inactive: -1.49%
CS(=O)(=O)c1ccc(CN2C[C@@H]3C[C@H]2C(=O)N(Cc2ccc(OC(F)(F)F)cc2)c2ccccc2O3)cc1	inactive: 2.69%
COc1ccccc1-c1ccc2ncc(Nc3cccc(N[S+](C)(=O)[O-])c3)n2n1	inactive: 17.9% [at 57.5 µM]
CC(=O)Nc1ccc(S(=O)(=O)N[C@H]2CO[C@H]3[C@@H]2OC[C@@H]3Nc2nccc(-c3cccs3)n2)cc1	inactive: 2.93%
NCCn1cc(C(=O)NCC(O)c2ccccc2C(F)(F)F)nn1 (centres undefined)	inactive: -3.94%
COCCN1CCCC(c2[nH]ccc2C(=O)NCCc2nc3ccccc3[nH]2)C1 (centres undefined)	inactive: -0.111%
NS(=O)(=O)c1ccsc1C(=O)N1CCCC2(CCNCC2)CC1	inactive: -2.03%
O=C1CC(C(=O)O)C2(CCN(c3cc(C4CC4)ncn3)CC2)N1 (centres undefined)	inactive: 4.66%
O=C(c1ccccc1)N1CCNc2cnc(Nc3cccc(F)c3)nc2C1	inactive: 10.3% [at 57.5 µM]
COc1ccc(-n2nc(C)c([C@@H]3C=C[C@@H](NC(=S)NCC(C)C)C3)c2C)cc1	inactive: 0.945% [at 57.5 µM]
O=C(Nc1ccc([C@H]2OCC(=O)N(C3CCOCC3)[C@@H]2CO)cc1)c1ccc(C(F)(F)F)cc1	inactive: 6.59%
CCOc1cc(CN(C)C(=O)CC2C(=O)NCCN2Cc2ccccc2)ccc1OC (centres undefined)	inactive: 3.61%
CCOCCN1C(=O)COC[C@@H]1[C@H](O)c1ccc(NC(C)=O)cc1	inactive: 0.642% [at 57.5 µM]
CSCC(=O)N1C[C@@H](NC(=O)Nc2ccc(F)cc2F)C[C@H]1C(=O)N[C@H](Cc1ccccc1)C(N)=O	inactive: 2.29%
Cn1ccc(NC(=O)c2cnc3c(c2)N([S+](=O)([O-])c2cccnc2)CCC3)n1	inactive: 3.56% [at 57.5 µM]

SMILES	activity change, negative = inhibition
O=C(O)CCC(=O)N1Cc2[nH]cnc2C[C@H]1C(=O)NC1CCCCC1	inactive: 13% [at 57.5 µM]
NS(=O)(=O)CCCC(=O)N1CCC(Cc2cccc(C(=O)O)c2)C1 (centres undefined)	inactive: -0.193%
Nc1ncc(-c2ccc(-c3cc(NC4CCCC4)nc4[nH]ccc34)cc2)[nH]1	inactive: 21.1%
CCC(=O)N1CCC(Cc2nc(-c3ccccc3)n[nH]2)CC1	inactive: 0.766%
COc1ccc(C(=O)N2CCn3c(nn(-c4ccc([N+](=O)[O-])cc4)c3=O)C2)cc1	inactive: 3.83%
COc1cccc(CN2CCNc3cc(Nc4cccnc4)ncc3C2)c1	inactive: 6.92% [at 57.5 µM]
O=C(Nc1ccc(Oc2ccccc2)cc1)O[C@@H]1CO[C@H]2[C@@H]1OC[C@@H]2NS(=O)(=O)c1ccc(Cl)cc1	inactive: 4.54%
CC(C)(C)c1ccc(C(=O)N2CCCC(O)(CN3CCCC3)C2)cc1 (centres undefined)	inactive: 3.12%
Cc1ccc(-c2ccc(N)nc2)c2cccnc12	inactive: 23%
c1cncc(COc2cc3c(cn2)NCCN(Cc2ccc4[nH]ccc4c2)C3)c1	inactive: 4.63% [at 57.5 µM]
O[C@H]1CC[C@@H](Cc2cc(COc3ccccc3)on2)O[C@@H]1CNC1CCNCC1	inactive: 2.49%
CCN(CC)C(=O)C[C@@H]1CCNC[C@@H]1Cc1cc(-c2ccc(C(C)(C)C)cc2)on1	inactive: -1.07% [at 57.5 µM]
COc1ccc2c(c1)OCC(CNC(=O)c1noc3c1CCCC3)C2 (centres undefined)	inactive: -0.417%
COc1cc(SC)ccc1C(=O)N[C@H]1CCN2C(=O)N(c3ccc(OC(F)(F)F)cc3)C(=O)[C@@H]2C1	inactive: 5.45%
O=C(Nc1ccccc1)Nc1ccc([C@@H](O)[C@H]2COCC(=O)N2Cc2cccnc2)cc1	inactive: -1.94% [at 57.5 µM]
COC(=O)c1ccc(N2C[C@H]3OC(=O)N(CCc4ccc(OC)cc4)[C@H]3C2)nc1	inactive: 11.7%
O[C@@H]1C[C@@H](c2nc(Cc3ccc(F)cc3Cl)no2)N(Cc2ccc(OC(F)(F)F)cc2)C1	inactive: -1.29%
C[S+](=O)([O-])c1cccc(NC(=O)Cc2c[nH]c3ncc(-c4ccccc4)cc23)c1	inactive: 3.35% [at 57.5 µM]
O=C(O)CCc1cc2n(n1)CCCN(C(=O)c1ccc3n[nH]nc3c1)C2	inactive: -2.75%
O=C(O)CCc1nc(C2CCOCC2)n[nH]1	inactive: 5.48%
CC(C)C(=O)NCCC1CCN(C(=O)Nc2cc(F)ccc2F)CC1	inactive: 1.4%
CC(C)CN(Cc1cccnc1)C1CN(C(=O)NCc2ccc(F)cc2)C1	inactive: 2.03%
COC(=O)[C@H](NC(=O)[C@@H]1[C@@H](NC(=O)Nc2cccc(SC)c2)CCN1C(=O)C=C(C)C)C(C)C	inactive: 1.72%
O=C(CCn1nnc(-c2ccccc2)n1)N1CCCC2(CCNCC2)CC1	inactive: -4.15%
